Measurements taken from patent EP2245064B1.

Molecular target: human IL-4Rα on TF-1 cells (human) (UniProt P24394)
Assay: cell-based or functional assay

UniProt P24394, sequence (P24394 26-825): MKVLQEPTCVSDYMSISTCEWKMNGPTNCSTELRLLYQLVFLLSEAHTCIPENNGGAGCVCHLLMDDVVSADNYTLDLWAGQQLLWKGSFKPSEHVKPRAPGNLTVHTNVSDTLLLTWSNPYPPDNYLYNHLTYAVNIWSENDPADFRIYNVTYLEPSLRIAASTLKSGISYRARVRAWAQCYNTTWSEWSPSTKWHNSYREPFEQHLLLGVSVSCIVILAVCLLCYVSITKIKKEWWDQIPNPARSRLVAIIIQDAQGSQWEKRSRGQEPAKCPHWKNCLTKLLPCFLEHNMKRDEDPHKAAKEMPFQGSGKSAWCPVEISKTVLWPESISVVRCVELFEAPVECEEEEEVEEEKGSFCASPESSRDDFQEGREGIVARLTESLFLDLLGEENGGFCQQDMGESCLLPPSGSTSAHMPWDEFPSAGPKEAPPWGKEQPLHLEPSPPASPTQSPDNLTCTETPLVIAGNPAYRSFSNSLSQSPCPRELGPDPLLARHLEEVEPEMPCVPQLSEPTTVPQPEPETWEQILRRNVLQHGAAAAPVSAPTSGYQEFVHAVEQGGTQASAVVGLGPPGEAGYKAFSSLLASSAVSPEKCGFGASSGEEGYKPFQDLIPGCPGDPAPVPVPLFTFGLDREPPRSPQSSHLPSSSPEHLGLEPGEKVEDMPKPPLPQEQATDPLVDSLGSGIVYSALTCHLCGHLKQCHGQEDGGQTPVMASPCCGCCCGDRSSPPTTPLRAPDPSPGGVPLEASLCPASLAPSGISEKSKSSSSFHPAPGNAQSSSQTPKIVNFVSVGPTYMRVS

B1: 12B5 benchmark antibody (antibody, from another filing, V domains shown)
VH: EVQLVQSGGGLVHPGGSLRLSCAGSGFTFSRNAMFWVRQAPGKGLEWVSGIGTGGATNYADSVKGRFTISRDNAKNSLYLQMNSLRAEDMAVYYCARGRYYFDYWGQGTLVTVSS
VL: [gap - about 100 residues]
IC50, IL-4 induced TF-1 cell proliferation: 0.0427 nM
IC50, IL-13 induced TF-1 cell proliferation: 0.0791 nM
